Data taken from patent publication US20170128389A1, “Paediatric Compositions For Treating Multiple Sclerosis” (Novartis AG, priority 2008, published 2017).

Test system: patients with relapsing multiple sclerosis (MS)
Assay: long-term extension of the study (up to 36 months, FTY720 once-daily)

CCCCCCCCc1ccc(CCC(N)(CO)CO)cc1 [FTY720, 2-amino-2-[2-(4-octylphenyl)ethyl]propane-1,3-diol]
most frequently reported adverse events (AEs; >15% of patients): nasopharyngitis, headache, fatigue, and influenza
